# Data reported in the supplement of paper PMC8728848.
# The list shows a part of the results.
# B1: DrGal3 (Danio rerio) (protein)
# chain: MDLSDALDAPPQQNNQQAGGPVWPGQPANPVWPGQPANPTWPGQPNQPAWPGQPNQQWPGQPGQPTAPGWPGPAPQTGPYGAPGQAPQVLTVPLDFPLQNGAYNKMLITINGEVKPNAKQFTVNLRRGNDIAFHINPRFSEGGKPVIVRNSMIGNNWGREERELPSFPFVPGKPFEMKILITDTEYKVAVNKSHLLEFKHRVFELNQITGLSIYNDVTLSTVNVETLQ
# Key:
# Assay in all cases: glycan array binding signal (z-score within array); higher = stronger binding
# Details in all cases: glycan notation: IUPAC condensed, linker removed
# [1] = biological target: Neu5Ac(a2-3)Gal6S(b1-4)[Fuc(a1-3)]GlcNAc
# Outline: (§1)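 The Consortium for Functional Glycomics database supplied 3228 glycan arrays, of which those lacking an available protein sequence were dropped. The binding signal, a within-array Z-score, was averaged across arrays of the same protein sequence and across linkers. Negative scores can be read as non-binding.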
# Neu5Ac(a2-3)GalNAc = biological target: Neu5Ac(a2-3)GalNAc
# Outline: as §1
# [2] = biological target: Neu5Ac(a2-3)GalNAc(b1-4)GlcNAc
# Outline: as §1
# [3] = biological target: Neu5Ac(a2-3)[GalNAc(b1-4)]Gal(b1-4)Glc
# Outline: as §1
# [4] = biological target: Neu5Ac(a2-3)[GalNAc(b1-4)]Gal(b1-4)GlcNAc
# Outline: as §1
# [5] = biological target: Neu5Ac(a2-3)[GalNAc(b1-4)]Gal(b1-4)GlcNAc(b1-3)GalNAc
# Outline: as §1
# [6] = biological target: Neu5Ac(a2-3)[Neu5Ac(a2-6)]GalNAc
# Outline: as §1
# Neu5Ac(a2-6)Gal = biological target: Neu5Ac(a2-6)Gal
# Outline: as §1
# [7] = biological target: Neu5Ac(a2-6)Gal(b1-3)GlcNAc(b1-3)[Gal(b1-4)GlcNAc(b1-6)]Gal(b1-4)Glc
# Outline: as §1
# Neu5Ac(a2-6)Gal(b1-4)Glc = biological target: Neu5Ac(a2-6)Gal(b1-4)Glc
# Outline: as §1
# [8] = biological target: Neu5Ac(a2-6)Gal(b1-4)GlcNAc
# Outline: as §1
# [9] = biological target: Neu5Ac(a2-6)Gal(b1-4)GlcNAc(b1-2)Man
# Outline: as §1
# [10] = biological target: Neu5Ac(a2-6)Gal(b1-4)GlcNAc(b1-2)Man(a1-3)Man(b1-4)GlcNAc(b1-4)GlcNAc
# Outline: as §1
# [11] = biological target: Neu5Ac(a2-6)Gal(b1-4)GlcNAc(b1-2)Man(a1-3)[Gal(b1-4)GlcNAc(b1-2)Man(a1-6)]Man(b1-4)GlcNAc(b1-4)GlcNAc
# Outline: as §1
# [12] = biological target: Neu5Ac(a2-6)Gal(b1-4)GlcNAc(b1-2)Man(a1-3)[GlcNAc(b1-2)Man(a1-6)]Man(b1-4)GlcNAc(b1-4)GlcNAc
# Outline: as §1
# [13] = biological target: Neu5Ac(a2-6)Gal(b1-4)GlcNAc(b1-2)Man(a1-3)[GlcNAc(b1-4)][Neu5Ac(a2-6)Gal(b1-4)GlcNAc(b1-2)Man(a1-6)]Man(b1-4)GlcNAc(b1-4)GlcNAc
# Outline: as §1
# [14] = biological target: Neu5Ac(a2-6)Gal(b1-4)GlcNAc(b1-2)Man(a1-3)[Man(a1-6)]Man(b1-4)GlcNAc(b1-4)GlcNAc
# Outline: as §1
# [15] = biological target: Neu5Ac(a2-6)Gal(b1-4)GlcNAc(b1-2)Man(a1-3)[Neu5Ac(a2-3)Gal(b1-4)GlcNAc(b1-2)Man(a1-6)]Man(b1-4)GlcNAc(b1-4)GlcNAc
# Outline: as §1
# [16] = biological target: Neu5Ac(a2-6)Gal(b1-4)GlcNAc(b1-2)Man(a1-3)[Neu5Ac(a2-6)Gal(b1-4)GlcNAc(b1-2)Man(a1-6)]Man(b1-4)GlcNAc(b1-4)GlcNAc
# Outline: as §1
# [17] = biological target: Neu5Ac(a2-6)Gal(b1-4)GlcNAc(b1-2)Man(a1-3)[Neu5Ac(a2-6)Gal(b1-4)GlcNAc(b1-2)Man(a1-6)]Man(b1-4)GlcNAc(b1-4)[Fuc(a1-6)]GlcNAc
# Outline: as §1
# [18] = biological target: Neu5Ac(a2-6)Gal(b1-4)GlcNAc(b1-2)Man(a1-6)Man(b1-4)GlcNAc(b1-4)GlcNAc
# Outline: as §1
# [19] = biological target: Neu5Ac(a2-6)Gal(b1-4)GlcNAc(b1-2)Man(a1-6)[Gal(b1-4)GlcNAc(b1-2)Man(a1-3)]Man(b1-4)GlcNAc(b1-4)GlcNAc
# Outline: as §1
# [20] = biological target: Neu5Ac(a2-6)Gal(b1-4)GlcNAc(b1-2)Man(a1-6)[GlcNAc(b1-2)Man(a1-3)]Man(b1-4)GlcNAc(b1-4)GlcNAc
# Outline: as §1
# [21] = biological target: Neu5Ac(a2-6)Gal(b1-4)GlcNAc(b1-2)Man(a1-6)[Man(a1-3)]Man(b1-4)GlcNAc(b1-4)GlcNAc
# Outline: as §1
# [22] = biological target: Neu5Ac(a2-6)Gal(b1-4)GlcNAc(b1-2)[Neu5Ac(a2-6)Gal(b1-4)GlcNAc(b1-4)]Man(a1-3)[GlcNAc(b1-4)][Neu5Ac(a2-6)Gal(b1-4)GlcNAc(b1-2)[Neu5Ac(a2-6)Gal(b1-4)GlcNAc(b1-6)]Man(a1-6)]Man(b1-4)GlcNAc(b1-4)GlcNAc
# Outline: as §1
# [23] = biological target: Neu5Ac(a2-6)Gal(b1-4)GlcNAc(b1-2)[Neu5Ac(a2-6)Gal(b1-4)GlcNAc(b1-4)]Man(a1-3)[GlcNAc(b1-4)][Neu5Ac(a2-6)Gal(b1-4)GlcNAc(b1-4)Man(a1-6)]Man(b1-4)GlcNAc(b1-4)GlcNAc
# Outline: as §1
# [24] = biological target: Neu5Ac(a2-6)Gal(b1-4)GlcNAc(b1-2)[Neu5Ac(a2-6)Gal(b1-4)GlcNAc(b1-6)]Man(a1-6)[Neu5Ac(a2-6)Gal(b1-4)GlcNAc(b1-2)Man(a1-3)][GlcNAc(b1-4)]Man(b1-4)GlcNAc(b1-4)GlcNAc
# Outline: as §1
# [25] = biological target: Neu5Ac(a2-6)Gal(b1-4)GlcNAc(b1-3)Gal(b1-3)GlcNAc
# Outline: as §1
# [26] = biological target: Neu5Ac(a2-6)Gal(b1-4)GlcNAc(b1-3)Gal(b1-4)GlcNAc
# Outline: as §1
# [27] = biological target: Neu5Ac(a2-6)Gal(b1-4)GlcNAc(b1-3)Gal(b1-4)GlcNAc(b1-2)Man(a1-3)[Neu5Ac(a2-6)Gal(b1-4)GlcNAc(b1-3)Gal(b1-4)GlcNAc(b1-2)Man(a1-6)]GalNAc
# Outline: as §1
# [28] = biological target: Neu5Ac(a2-6)Gal(b1-4)GlcNAc(b1-3)Gal(b1-4)GlcNAc(b1-3)Gal(b1-4)GlcNAc
# Outline: as §1
# [29] = biological target: Neu5Ac(a2-6)Gal(b1-4)GlcNAc(b1-3)Gal(b1-4)GlcNAc(b1-3)Gal(b1-4)GlcNAc(b1-2)Man(a1-3)[Neu5Ac(a2-6)Gal(b1-4)GlcNAc(b1-3)Gal(b1-4)GlcNAc(b1-3)Gal(b1-4)GlcNAc(b1-2)Man(a1-6)]GalNAc
# Outline: as §1
# [30] = biological target: Neu5Ac(a2-6)Gal(b1-4)GlcNAc(b1-3)Gal(b1-4)GlcNAc(b1-3)GalNAc
# Outline: as §1
# [31] = biological target: Neu5Ac(a2-6)Gal(b1-4)GlcNAc(b1-3)Gal(b1-4)GlcNAc(b1-3)[Neu5Ac(a2-6)Gal(b1-4)GlcNAc(b1-3)Gal(b1-4)GlcNAc(b1-6)]GalNAc
# Outline: as §1
# [32] = biological target: Neu5Ac(a2-6)Gal(b1-4)GlcNAc(b1-3)Gal(b1-4)GlcNAc(b1-6)[Gal(b1-3)]GalNAc
# Outline: as §1
# [33] = biological target: Neu5Ac(a2-6)Gal(b1-4)GlcNAc(b1-3)Gal(b1-4)[Fuc(a1-3)]GlcNAc(b1-3)Gal(b1-4)[Fuc(a1-3)]GlcNAc
# Outline: as §1
# [34] = biological target: Neu5Ac(a2-6)Gal(b1-4)GlcNAc(b1-3)GalNAc
# Outline: as §1
# [35] = biological target: Neu5Ac(a2-6)Gal(b1-4)GlcNAc(b1-3)[Neu5Ac(a2-6)Gal(b1-4)GlcNAc(b1-6)]GalNAc
# Outline: as §1
# [36] = biological target: Neu5Ac(a2-6)Gal(b1-4)GlcNAc(b1-6)GalNAc
# Outline: as §1
binder,measurement,setting,value
B1,glycan array binding signal (z-score),[1],-0.271
same,glycan array binding signal (z-score),Neu5Ac(a2-3)GalNAc,-0.25
same,glycan array binding signal (z-score),[2],-0.274
same,glycan array binding signal (z-score),[3],-0.285
same,glycan array binding signal (z-score),[4],-0.268
same,glycan array binding signal (z-score),[5],-0.185
same,glycan array binding signal (z-score),[6],-0.275
same,glycan array binding signal (z-score),Neu5Ac(a2-6)Gal,-0.272
same,glycan array binding signal (z-score),[7],-0.258
same,glycan array binding signal (z-score),Neu5Ac(a2-6)Gal(b1-4)Glc,-0.24
same,glycan array binding signal (z-score),[8],-0.257
same,glycan array binding signal (z-score),[9],-0.287
same,glycan array binding signal (z-score),[10],-0.265
same,glycan array binding signal (z-score),[11],-0.222
same,glycan array binding signal (z-score),[12],-0.025
same,glycan array binding signal (z-score),[13],-0.3
same,glycan array binding signal (z-score),[14],-0.226
same,glycan array binding signal (z-score),[15],-0.257
same,glycan array binding signal (z-score),[16],-0.217
same,glycan array binding signal (z-score),[17],-0.117
same,glycan array binding signal (z-score),[18],-0.237
same,glycan array binding signal (z-score),[19],-0.241
same,glycan array binding signal (z-score),[20],-0.251
same,glycan array binding signal (z-score),[21],-0.232
same,glycan array binding signal (z-score),[22],-0.226
same,glycan array binding signal (z-score),[23],-0.234
same,glycan array binding signal (z-score),[24],-0.246
same,glycan array binding signal (z-score),[25],-0.125
same,glycan array binding signal (z-score),[26],-0.25
same,glycan array binding signal (z-score),[27],0.608
same,glycan array binding signal (z-score),[28],0.971
same,glycan array binding signal (z-score),[29],1.15
same,glycan array binding signal (z-score),[30],-0.209
same,glycan array binding signal (z-score),[31],-0.107
same,glycan array binding signal (z-score),[32],-0.184
same,glycan array binding signal (z-score),[33],-0.257
same,glycan array binding signal (z-score),[34],-0.19
same,glycan array binding signal (z-score),[35],-0.219
same,glycan array binding signal (z-score),[36],-0.143
